Among all 16,000 compounds or so, about 5,700 (36%) were called active. Inconclusive results (about 24%) are left out. Calls follow the shape of the dose curve; as a rule, active = well fitted curve in the direction sought with a large enough effect; inconclusive = small, poorly fitted or top-dose-only effect, or effect the other way; inactive = no such curve, though single readings can be large or run the other way. Some entries of the source have several records that differ or are many. Only these are listed. There may be further records. Values that stand side by side are repeated measurements in other runs, samples, wells, individuals or studies. Marks such as (2×) give the number of equal values in this list.

This experiment deals with Cytochrome P450 1A2 (Homo sapiens) (UniProt P05177). Description: Cytochrome panel assay with activity outcomes. The note with it: recombinant CYP, pro-luciferin dealkylation, luminescence; p450-cyp1a2.
Sequence of UniProt P05177 (P05177 whole entry, looked up): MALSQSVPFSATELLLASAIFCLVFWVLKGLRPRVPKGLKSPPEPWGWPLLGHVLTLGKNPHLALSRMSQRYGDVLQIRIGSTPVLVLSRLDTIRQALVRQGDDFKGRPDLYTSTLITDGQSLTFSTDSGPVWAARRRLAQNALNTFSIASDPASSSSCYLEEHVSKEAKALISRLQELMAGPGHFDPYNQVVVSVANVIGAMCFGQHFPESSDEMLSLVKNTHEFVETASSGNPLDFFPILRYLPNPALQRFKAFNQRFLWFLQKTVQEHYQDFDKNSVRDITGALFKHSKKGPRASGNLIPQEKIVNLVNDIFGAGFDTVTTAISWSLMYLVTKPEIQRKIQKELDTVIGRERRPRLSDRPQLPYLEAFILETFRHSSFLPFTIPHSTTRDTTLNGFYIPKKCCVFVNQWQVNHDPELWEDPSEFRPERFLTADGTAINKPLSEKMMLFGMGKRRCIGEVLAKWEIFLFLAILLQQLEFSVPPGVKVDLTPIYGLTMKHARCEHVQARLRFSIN
Regarding `CC(C)NC[C@@H](O)COc1cccc2ccccc12`, the AC50 result is “active: 1.58 µM, 1.26 µM, 251 nM, 631 nM, 200 nM (2×), 158 nM [separate samples]”.

Values taken from PubChem BioAssay AID1851 (National Center for Advancing Translational Sciences (NCATS), 2009).
